The list shows a part of the results.
What follows are sequences tested on PF3D7_0420300 AP2 domain 1 (GST-tagged) (assay: gcPBM binding intensity (ln(normalized median fluorescence intensity)); higher = stronger DNA binding).
Outline: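 Binding intensity values are the highest Masliner-normalised natural-log median intensity among replicate spots of either probe orientation. The binding step lasted 1 h in 1× PBS with 1% milk, 0.2 mg/ml BSA, 0.5% salmon testes DNA and 0.03% Triton X-100, using GST-tagged P. falciparum DNA-binding domains expressed in E. coli on an Agilent 4 × 180k array of primer-extended double-stranded 36-bp intergenic genomic probes plus negative controls. Alexa488 anti-GST antibody and a 488 nm scan detected bound protein.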

Row | Sequence | gcPBM binding intensity (ln)
1 | TCGTGAATGATTTAAGTACACACCGGTATTTATTCA [CACACA_site1564] | 9.46
2 | ATTTATTTATATATATTATTTGTTTTAATTTACTTA [XGTACX_negctrl_site246] | 9.21
3 | TATTGTTGTCTTTACACATGCAACAAAAGAAGAAAA [TGCATGCA_site911] | 9.14
4 | CATACAGATGGACACACACACACACCCACAGACAAA [CACACA_site4431] | 10.1
5 | TTTTTTTTTTGATGCACACACCTGAACGAGTTAATA [CACACA_site4329] | 9.56
6 | TTCATAAGAAGGAACTGTACATATTTTTCATTTTTT [XGTACX_site6770] | 9.15
7 | AACAGGTCATAATTTACACACTATATATCTTATTAT [CACACA_site6461] | 9.72
8 | CGATTTTTTTTTTATTGTACTTGCTCGCATGCAATA [XGTACX_site4727] | 9.07
9 | TGTATACCTTAATATACACACATACAGATATATATA [CACACA_site4860] | 9.49
10 | TACAATCTTTCATTATGTACTTAACATTTTTTCTGT [XGTACX_site8752] | 9.39
11 | TTATATGTATATATATGTATATATATATATATATAG [TGCATGCA_negctrl_site461] | 8.98
12 | TGTTTTATTTAGAAGGTGCACATTAATATTAAATAA | 9.04
13 | ATATGCATTTTTATACGTACATATTTCTTTTCGTTA [XGTACX_site1497] | 9.52
14 | ACAAAAGGGGAATACACACACATATATAAATAAATA [CACACA_site7111] | 9.84
15 | CATATTTTTATGAGATGTACAATAAGAAATATGTAA [XGTACX_site2389] | 9.09
16 | TATGTATTTATATTAACACACAAAAAAAAAAAAAAA [CACACA_site5070] | 9
17 | ATATGGCTAAAAGTTGCACACACACTAATAAAAAAA [CACACA_site9082] | 9.76
18 | ATTATTTTACTAAAAGATATTCCTTTTTTTTGTACT [CACACA_negctrl_site998] | 9.18
19 | ATATGCCTAATAAAATGTACGTTTGTTTTATTTATT [XGTACX_site3833] | 9.5

Row | Sequence | gcPBM binding intensity (ln)
20 | ATATATATATTTTGGTAGCACCTCCTTTTTTTTTTT | 9.55
21 | TAAAAATTAATATAAACACACAAAAATTAATAAATA [CACACA_site381] | 9.56
22 | TATAACAAGTTATAAAGTACAAATGTTGAATTTTAT [XGTACX_site4673] | 9.14
23 | TCGGGAGGGGGGAAGCGTACATATATAAAATTATTA [XGTACX_site4683] | 10.2
24 | TATAGATACAGATACACACACACACCGACATATATA [CACACA_site5832] | 10.2
25 | GAATGTATATTCATGTATTTATTATTATTATTATTA [XGTACX_negctrl_site156] | 9.23
26 | TTCTTCTGTTTTATTACACACCATTTTGTGGATACA [CACACA_site5181] | 9.61
27 | TACCTAGGATTAAAGTGTCCACATAATTTAAATAAT [XGTACX_site6736] | 9.04
28 | TATATAAATAGACACACACACATATAAATATAAATA [CACACA_site6503] | 10.1
29 | TTTTTTATTATATAATTGTATATAAAATTATAATTT [GTGCAC_negctrl_site733] | 8.98
30 | TAACTTGAATGGATATGTACATATATATATATATAT [XGTACX_site5990] | 9.16
31 | ATTCATCTATTTTGTAGTACTAAATATATATCTACT [XGTACX_site8790] | 9.46
32 | TAGATGTATGTACATACACACATATATAAATAAATA [CACACA_site1788] | 9.4
33 | AATAAACATATATACACACACAAAAAAAAAAACATA [CACACA_site424] | 10.2
34 | GGTAAGTACGACTTGACACACATACCCATATATATA [CACACA_site4837] | 9.42
35 | ACAGTATCTGGTAGCTGTACGAGTCGTAGAGTGCAG [XGTACX_site2015] | 9.27
36 | GCGAAATATTATTATAGTATACAAATACTTCTATGA [CACACA_negctrl_site197] | 9.01
37 | GGTGTTAAAAAATACACACACAAAAAAAAAAAAAAA [CACACA_site138] | 9.15
38 | TTTTTTTAATTTGGTTGTACTTAAAAAAAAAACAGA [XGTACX_site5788] | 8.78

Row | Sequence | gcPBM binding intensity (ln)
39 | TTCACAAAATATTATTGTACATTAAAATATTTATAT [XGTACX_site2535] | 8.94
40 | TATAAAACGGATGAACAACAAATCATATGGCACAAA [TGCATGCA_negctrl_site608] | 9.79
41 | TACATGATATATCACACACACATATAAATATATATA [CACACA_site2831] | 9.88
42 | GAAAATTTCTTATTTTGTACACACAATAAATATTCA [XGTACX_site3267] | 9.29
43 | GTTTTTTTATTTCATCGTACAAAAAAGAAGGCTTTA [XGTACX_site5291] | 8.89
44 | TTATATATTTATTTATGTACATATTTTTTTATTATA [XGTACX_site6115] | 9.39
45 | TAAATATGTATTCATACATGCACATATATATATATA [TGCATGCA_site584] | 9.19
46 | TTTATACTTGTAAATGCACACATAAGATGCGACTAA [CACACA_site8662] | 9.18
47 | ATATCCTTAAAAGATACACACATATGAATATTTTGT [CACACA_site3847] | 9.42
48 | GTTTGTAAATATTTTACACACATATATATATATATA [CACACA_site1075] | 9.56
49 | ATTATAGACACGCGCACACACAACAAAAAAAAAAAA [CACACA_site9180] | 9.81
50 | TTGGGGTATCTTCCTATGCACACTTGTTATGTACTA [CACACA_site831] | 9.54
51 | TTGCTCACAAGAAGCACACAAAAAAAGAAAAAAAAA [CACACA_site4047] | 9.13
52 | ATACTTTTAAATTGATGTACTTTATTTATAAGGTGA [XGTACX_site6746] | 9.07
53 | TTGATTACTAGAAATGCACACACTGATAAAATAAGG [CACACA_site4134] | 9.54
54 | TTACAAATGTTTTACACACACATAATTGTATCAATT [CACACA_site6147] | 9.73
55 | ACTACTCCATTAAGTAGTACACAAAAAAAAAAAATA [XGTACX_site7031] | 9.12
56 | TAATAAAACATATATACACACATTATAAATACATAT [CACACA_site5014] | 9.86
57 | TATAAATAAAAACACACACACATATATATATATATA [CACACA_site2319] | 9.75
